This is an account of results in PubChem BioAssay AID1963576 (National Center for Advancing Translational Sciences (NCATS), 2024).

Among all 46,000 compounds or so, about 60 (0.1%) were called active. About 3% were inconclusive and are not listed. The call rests on the fitted dose curve; in most records, active means well fitted inhibition curve with a large enough effect; inconclusive means small, poorly fitted or top-dose-only effect; inactive means no such curve, though single readings can be large or run the other way. Some of the results follow.

This assay is described as follows: Primary qHTS assay for Inhibitors of ovarian cancer metastasis using an organotypic tumor microenvironment (TME) model. Further: nearly all actives have a fitted effect of over 65% in size.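 On activity change, negative = inhibition: plate controls were DMSO wells for no effect and tomatine positive control wells for full effect.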 Conditions: SKOV3ip1-GFP adhesion/invasion on 3D omental model, fluorescence; series mostly up to 45.8 µM; activity change, negative = inhibition: at the top concentration. In outline: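 Primary human omental fibroblast/mesothelial 3D culture pre-formed 48 h. SKOV3ip1-GFP cells added with compounds (0.36-46 umol/L), incubated 2 h RT/16 h 37 C, fixed; GFP cells quantified at 488/509 nm.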
Take `CCOc1ccc(C(=O)NCCSc2c(C)[nH]c3ccccc23)cc1OCC`: the “activity change, negative = inhibition” value is inactive: 0.295%. For the compound `CCOc1ccc(C(=O)NCC(c2cccs2)S(=O)(=O)c2ccccc2)cc1` (stereo not drawn), the “activity change, negative = inhibition” value was inactive: 4.81%.

Take `CCOc1ccccc1NC(=O)c1ccc(F)c(S(=O)(=O)N2CCN(c3ccc(F)cc3)CC2)c1`: the call was inactive.

As for `COc1ccccc1CNC(=O)c1cc2c(s1)-c1ccc(Cl)cc1SC2`, the “activity change, negative = inhibition” value was inactive: 5.17%.

For `Cc1ccccc1CNC(=O)CSc1nnc(C)c2c(C)n(-c3ccccc3)nc12`, the “activity change, negative = inhibition” value is inactive: -7.61%.

Take `Cn1cc(-c2cnn3c(N)c(Br)c([C@H]4CCCNC4)nc23)cn1`: the “activity change, negative = inhibition” value is inactive: 17.9%. With `CCOC(=O)c1c(NC(=O)c2cc(-c3ccc(OC)c(OC)c3)on2)sc(C)c1C`, the “activity change, negative = inhibition” value was inactive: -8.04%.

For `COc1ccccc1N1CCN(C(CNC(=O)C(=O)NCc2cccnc2)c2cccnc2)CC1` (stereo not drawn), the “activity change, negative = inhibition” value is inactive: 23.3%. Take `CCN(CC)CCCNC(=O)CCC(=O)NNc1nc2ccccc2c2nc(C)nn12`: the outcome was inactive. `CC(=O)N1CCCc2cc(S(=O)(=O)N3CCC(C(=O)Nc4ccc(C)cc4Cl)CC3)ccc21`: the “activity change, negative = inhibition” value is inactive: -0.764%. Turning to `CCCCOc1ccc(C2C(C(=O)Nc3ccccc3OC)=C(C)Nc3nnnn32)cc1OC` (stereo not drawn), the “activity change, negative = inhibition” value was inactive: -7.81%.

For `Cc1ccn2c(Nc3ccc4c(c3)OCCO4)c(-c3ccccc3O)nc2c1`, the “activity change, negative = inhibition” value was inactive: 6.17%. `Cc1ccc(S(=O)(=O)n2nc(C)c(S(=O)(=O)N3CCCCCC3)c2C)cc1C`: the “activity change, negative = inhibition” value was inactive: 39.1%. `O=C(COc1ccc(Cl)cc1)Nc1nnc(S(=O)(=O)N2CCCCCC2)s1`: the compound was called inactive. As for `CCOc1cccc(CC(=O)N2CCc3c([nH]c4ccc(OC)cc34)C2c2ccc(F)cc2)c1OCC` (stereo not drawn), the compound was classed as inactive. As for `Cc1ccc(NC(=O)c2oc3c(c2C)-c2[nH]ncc2CC3)c(Cl)c1`, the “activity change, negative = inhibition” value was inactive: -7.31%. Consider `Cc1ccc(CNC(=O)c2ccc(Nc3nc4ccccc4n4nnnc34)cc2)cc1`, for which the “activity change, negative = inhibition” value is inactive: 1.38%. On to `Cc1ccc(-c2nn(-c3ccccc3)c3c2cnc2ccccc23)cc1C`, for which the result was inactive.

In the case of `Cc1cc(NC(=O)Nc2nnc(N3CCCCCC3)s2)ccc1Br`, the “activity change, negative = inhibition” value is inactive: -4.41%. Consider `COc1ccc(CCNC(=O)c2ccc3c(c2)N(Cc2ccccc2)CCS3)cc1OC`, for which the compound was called inactive. As to `Cc1ccc(C(=O)N2CCn3c4c(c5cc(C)ccc53)CCCC42)cc1` (stereo not drawn), the “activity change, negative = inhibition” value is inactive: -0.245%. Consider `CCOc1ccc(NC(=O)C(=O)NCCc2csc(-c3ccc(C(F)(F)F)cc3)n2)cc1`, for which the compound was called inactive. On to `Cc1cc(C)cc(NS(=O)(=O)c2ccc3[nH]cc(C(=O)NCCc4ccccc4)c(=O)c3c2)c1`, for which the “activity change, negative = inhibition” value is inactive: -4.35%.

As for `COc1ccc(OC)c(-c2noc(N3CCN(c4ccc(Cl)cc4)CC3)n2)c1`, the outcome was inactive.

With `Cn1cnc(S(=O)(=O)N2CCCC(C(=O)NCc3ccc(F)cc3)C2)c1` (stereo not drawn), the “activity change, negative = inhibition” value was inactive: 10.2%. Consider `Cc1ccc(S(=O)(=O)N(CCc2ccccc2)CC(=O)Nc2ccccc2C)cc1`, for which the “activity change, negative = inhibition” value was inactive: -6.84%.

In the case of `CNC(=O)c1c(-c2ccc(F)cc2)oc2cc(N(CCO)S(C)(=O)=O)c(C3CC3)cc12`, the “activity change, negative = inhibition” value was inactive: -0.637%.

Turning to `CC(C)c1ccc(NS(=O)(=O)c2cc(Br)cc3c2N(C(=O)C2CC2)CC3)cc1`, the “activity change, negative = inhibition” value is inactive: 1.54%. Regarding `COC(=O)c1sc2c(c1C)c(=O)n(-c1ccccc1)c(=O)n2CC(=O)Nc1cccc(C)c1`, the “activity change, negative = inhibition” value was inactive: -5.42%.

In the case of `CCCN1C(=O)C(O)(CC(=O)c2ccc(C(C)C)cc2)c2ccccc21` (stereo not drawn), the “activity change, negative = inhibition” value was inactive: -7.71%. For `COc1ccc(NC(=O)CN2CCN(Cc3ccccc3Cl)S2(=O)=O)cc1Cl`, the call was inactive. In the case of `CCc1ccccc1NS(=O)(=O)c1ccc2c(c1)CCCN2C(=O)C1CCC1`, the “activity change, negative = inhibition” value is inactive: -2.85%. For the compound `CC(C)NC(=O)c1ccc2c(c1)N(Cc1cccc(Cl)c1)C(=O)c1ccccc1S2=O` (stereo not drawn), the “activity change, negative = inhibition” value is inactive: -3.58%. Consider `CCc1cccc(NC(=O)CCc2c(C)nc3c(-c4ccccc4)c(C)nn3c2C)c1`, for which the outcome was inactive. Turning to `CCN(C(=O)Cn1c(=O)oc2cc(S(=O)(=O)N3CCCCC3)ccc21)c1ccccc1`, the “activity change, negative = inhibition” value is inactive: -7.67%. With `CN1CCN(Cc2c(O)ccc3cc(-c4ccc(Cl)cc4)c(=O)oc23)CC1`, the “activity change, negative = inhibition” value is inactive: -8.15%. On to `COc1cc(OC)c(NC(=O)N2CCC(CN3CCOCC3)CC2)cc1Cl`, for which the compound was called inactive. Regarding `CCN(CC)CCCC(C)Nc1ccnc2cc(Cl)ccc12` (stereo not drawn), the “activity change, negative = inhibition” value is inactive: -20.4%.

Consider `Cc1cc(C)cc(N2CCn3c2nc2c3c(=O)n(C/C=C/c3ccccc3)c(=O)n2C)c1`, for which the “activity change, negative = inhibition” value was inactive: 17.5%. For the compound `COc1cccc(CC(=O)Nc2ccc(-c3nc4ccccc4s3)cc2Cl)c1`, the “activity change, negative = inhibition” value was inactive: 8.16%.

On to `CCOc1cc(CNC(=O)C2CCN(c3nc4ccccc4[nH]3)CC2)cc(OCC)c1OCC`, for which the “activity change, negative = inhibition” value was inactive: 1.23%. As for `COc1ccc(N2CCN(C(=O)C3Cc4ccccc4N3C(C)=O)CC2)cc1` (stereo not drawn), the “activity change, negative = inhibition” value is inactive: -2.63%.

For the compound `COc1cccc(CNC(=O)c2c(C)oc3ncnc(N4CCOCC4)c23)c1`, the “activity change, negative = inhibition” value is inactive: -8.78%.

Turning to `Cc1c(C)c2cc3c(c(C)c2oc1=O)OCN(CCc1ccccc1)C3`, the result was inactive. With `Cc1c(Cl)cccc1NC(=O)CSc1ccc(-c2ccccn2)nn1`, the result was inactive. For the compound `Cc1ccc2nc(-c3ccc(F)cc3)c(NC(C)(C)CC(C)(C)C)n2c1`, the “activity change, negative = inhibition” value is inactive: 2.27%. Turning to `Cc1ccc(C)c(NC(=O)CCOc2ccccc2)c1`, the “activity change, negative = inhibition” value was inactive: 5.01%. Consider `COc1ccc(C)cc1NC(=O)C(=O)NCC(c1cccnc1)N1CCN(c2ccccc2F)CC1` (stereo not drawn), for which the “activity change, negative = inhibition” value was inactive: -23.2%.
